Screen size: about 310,000 compounds; about 14,000 (4.5%) showed an effect of 50% or more. The effect is printed as a negative number. The list shows a part of the results.
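Further: peak tail current of the secondary pulse compared with the same well before compound.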

human ether-à-go-go-related gene (hERG) potassium channel, sequence (Q12809 whole entry, looked up): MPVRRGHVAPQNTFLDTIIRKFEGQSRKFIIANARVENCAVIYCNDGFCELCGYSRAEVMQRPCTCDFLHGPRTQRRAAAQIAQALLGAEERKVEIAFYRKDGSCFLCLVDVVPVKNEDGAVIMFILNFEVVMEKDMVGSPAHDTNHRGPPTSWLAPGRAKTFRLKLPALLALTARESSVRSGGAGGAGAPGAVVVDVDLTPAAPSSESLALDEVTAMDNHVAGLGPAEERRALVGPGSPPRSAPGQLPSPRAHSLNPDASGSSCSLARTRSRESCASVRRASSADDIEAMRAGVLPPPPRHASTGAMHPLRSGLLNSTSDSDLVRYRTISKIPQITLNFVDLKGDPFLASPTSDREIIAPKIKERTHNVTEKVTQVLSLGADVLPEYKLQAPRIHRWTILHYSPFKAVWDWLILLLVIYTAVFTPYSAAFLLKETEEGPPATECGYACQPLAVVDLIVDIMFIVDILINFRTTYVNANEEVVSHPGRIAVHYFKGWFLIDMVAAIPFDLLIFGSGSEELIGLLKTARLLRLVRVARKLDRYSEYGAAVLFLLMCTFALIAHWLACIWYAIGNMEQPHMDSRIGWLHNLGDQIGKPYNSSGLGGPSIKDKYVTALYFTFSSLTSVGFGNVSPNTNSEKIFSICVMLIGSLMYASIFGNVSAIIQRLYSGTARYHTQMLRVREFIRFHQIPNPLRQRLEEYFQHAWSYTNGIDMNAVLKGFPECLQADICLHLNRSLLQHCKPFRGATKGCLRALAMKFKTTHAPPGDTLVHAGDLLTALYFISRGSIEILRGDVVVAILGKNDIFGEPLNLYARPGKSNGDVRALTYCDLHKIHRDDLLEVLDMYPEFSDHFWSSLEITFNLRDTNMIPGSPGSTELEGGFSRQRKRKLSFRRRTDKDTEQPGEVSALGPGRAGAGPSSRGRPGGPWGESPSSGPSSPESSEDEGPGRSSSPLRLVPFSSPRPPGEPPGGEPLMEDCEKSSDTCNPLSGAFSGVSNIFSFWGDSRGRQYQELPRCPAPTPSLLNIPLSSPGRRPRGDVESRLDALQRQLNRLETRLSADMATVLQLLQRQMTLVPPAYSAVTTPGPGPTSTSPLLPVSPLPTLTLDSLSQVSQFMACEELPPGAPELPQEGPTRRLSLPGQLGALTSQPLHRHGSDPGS

This experiment addresses human ether-à-go-go-related gene (hERG) potassium channel (human, UniProt Q12809). Description: primary screen, population patch clamp on CHO cells stably expressing hERG.
With `O=C(COC(=O)c1ccc(OC(F)F)cc1)NCCNC(=O)COC(=O)c1ccc(OC(F)F)cc1`, the “hERG current change (%, negative = inhibition) at 10uM” value is given as -10.1%.

In the case of `Cc1c(C(=O)N2CCc3ccccc32)cnn1C`, the “hERG current change (%, negative = inhibition) at 10uM” value was determined as 3.63%.

In the case of `CN(C)S(=O)(=O)N1CCN(C(=O)c2ccc3c(c2)OCO3)CC1`, the “hERG current change (%, negative = inhibition) at 10uM” value amounted to 10%.

In the case of `COc1ccc(NC(=O)CC2C(=O)NCCN2C(=O)c2ccc(N(C)C)cc2)cc1` (centres unmarked), the “hERG current change (%, negative = inhibition) at 10uM” value is reported as -0.731%.

As for `CCCS(=O)(=O)N1CCN(Cc2ccc3c(c2)c2ccccc2n3CC)CC1.O=C(O)C(=O)O`, the “hERG current change (%, negative = inhibition) at 10uM” value was determined as 9.97%.

With `C=CCOc1c(Cl)cc(CNc2nccs2)cc1OC`, the “hERG current change (%, negative = inhibition) at 10uM” value is listed as -38.7%.

Turning to `CCOC(=O)N1CCC(N2C(=O)c3ccc(C(=O)NCCOC)cc3C2=O)CC1`, the “hERG current change (%, negative = inhibition) at 10uM” value is listed as 10.3%.

Take `CCOC(=O)CSc1nnc(CNC(=O)c2ccccc2OC)n1-c1ccc(OC)cc1`: the “hERG current change (%, negative = inhibition) at 10uM” value is -28.8%.

In the case of `Cc1cc2oc(=O)cc(C)c2cc1NC(=O)CCl`, the “hERG current change (%, negative = inhibition) at 10uM” value was -4.17%.

For `O=C(N/N=C/c1ccc(Br)cc1)c1ccccc1-n1cccc1`, the “hERG current change (%, negative = inhibition) at 10uM” value is -2.55%.

Turning to `CCOc1cc(C(=O)Nc2ccc(S(=O)(=O)NC3=NCCCCC3)cc2)cc(Br)c1OC`, the “hERG current change (%, negative = inhibition) at 10uM” value stood at 9.39%.

As for `Cc1cc(C=O)c(C)n1-c1ccc2c(c1)OCO2`, the “hERG current change (%, negative = inhibition) at 10uM” value was 32.2%.

As for `O=C(Cn1cnc2ccccc2c1=O)Nc1ccccc1N1CCOCC1`, the “hERG current change (%, negative = inhibition) at 10uM” value is reported as 15.3%.

As to `Cc1ccc(Cn2cc(/C=N/NC(=O)Cc3nnc(NC(=O)c4ccc(C)cc4)s3)c3ccccc32)cc1`, the “hERG current change (%, negative = inhibition) at 10uM” value was -4.33%.

Turning to `CCOC(=O)N1CCN=C1SCc1ccc(Cl)c(Cl)c1`, the “hERG current change (%, negative = inhibition) at 10uM” value is -4.19%.

As to `Cc1ccc(S(=O)(=O)N2CCCCC2)cc1NC(=O)CNCc1ccco1.O=C(O)C(=O)O`, the “hERG current change (%, negative = inhibition) at 10uM” value is recorded as -32.1%.

As to `CCN(N)C(=S)Nc1ccc(F)cc1`, the “hERG current change (%, negative = inhibition) at 10uM” value is 3.59%.

For the molecule `Cc1cc(Cl)c(OCCOCCN2CCC(C)CC2)c(Br)c1.O=C(O)C(=O)O`, the “hERG current change (%, negative = inhibition) at 10uM” value is recorded as -57.6%.

`Cc1cc(=O)oc2cc(OCC(=O)OCC(=O)Nc3c(C)n(C)n(-c4ccccc4)c3=O)ccc12`: the “hERG current change (%, negative = inhibition) at 10uM” value is on record as 19.3%.

For `COc1ccc(CNS(=O)(=O)NCc2ccccc2)cc1OC`, the “hERG current change (%, negative = inhibition) at 10uM” value was -1%.

Regarding `Cc1ccc(C(C)C)cc1OCC(=O)N1CCN(C(=O)c2ccco2)CC1`, the “hERG current change (%, negative = inhibition) at 10uM” value is -41.2%.

Take `O=C(COc1cccnc1[N+](=O)[O-])Nc1ncc(Cl)cc1Cl`: the “hERG current change (%, negative = inhibition) at 10uM” value was -3.74%.

On to `Cl.O=C(CCN1CCCCCC1)Nc1cccc(Cl)c1`, for which the “hERG current change (%, negative = inhibition) at 10uM” value was -42.7%.

On to `c1ccc2c(c1)nc(NCC1CCCO1)c1nnnn12` (centres unmarked), for which the “hERG current change (%, negative = inhibition) at 10uM” value is -11.1%.

`CC1(C)CC(=O)c2cc(C(=O)NCc3ccco3)c(=O)n(-c3ccc(Cl)cc3)c2C1`: the “hERG current change (%, negative = inhibition) at 10uM” value is given as -22.2%.

Take `CC(=O)Nc1cccc(NC(C)=C(C#N)C#N)c1`: the “hERG current change (%, negative = inhibition) at 10uM” value was 20.6%.

`Cc1nn(C)c(C)c1CN(C)C(=O)c1cnn2c1NC(c1ccccc1)CC2C(F)(F)F` (centres unmarked): the “hERG current change (%, negative = inhibition) at 10uM” value was -20.9%.

In the case of `CC(C)C(c1nnnn1CC1CCCO1)N1CCN(Cc2ccc3c(c2)OCO3)CC1.Cl` (centres unmarked), the “hERG current change (%, negative = inhibition) at 10uM” value is -6.66%.

On to `Cc1ccc(NC(=O)CN(C)C(=O)Cn2ncc(Cl)c(Cl)c2=O)cc1`, for which the “hERG current change (%, negative = inhibition) at 10uM” value is 8.35%.

As for `CC1CCC(C(C)C)C(OC(=O)C[n+]2cc(-c3ccc(Cl)cc3)n3c2CCCCC3)C1.[Cl-]` (centres unmarked), the “hERG current change (%, negative = inhibition) at 10uM” value is reported as -79.4%.

On to `C=CCC(C#Cc1ccccc1)N(C)C` (centres unmarked), for which the “hERG current change (%, negative = inhibition) at 10uM” value is on record as -12.8%.

As for `COc1ccc(CCNc2c3ccccc3nc3ccccc23)cc1OC.Cl`, the “hERG current change (%, negative = inhibition) at 10uM” value was -69.7%.

As for `Cc1ccc(-n2cc(CN3CCN(c4ccccn4)CC3)c(-c3ccc(F)cc3)n2)cc1`, the “hERG current change (%, negative = inhibition) at 10uM” value amounted to 11.2%.

Regarding `Cc1cccc(NC(=O)c2ccc(COc3ccccc3)o2)n1`, the “hERG current change (%, negative = inhibition) at 10uM” value is -21.5%.

On to `COc1ccc(C(=O)c2nc3c(n2O)CCCC3)cc1OC`, for which the “hERG current change (%, negative = inhibition) at 10uM” value was determined as 18.1%.

Take `CCOC(=O)N1CCN(C(=O)Nc2ccc3nc(C)c(C)nc3c2)CC1`: the “hERG current change (%, negative = inhibition) at 10uM” value turned out to be 3.79%.

For `CC(CN1CCCCC1)OC(=O)COc1ccc(Br)cc1` (centres unmarked), the “hERG current change (%, negative = inhibition) at 10uM” value is given as 8.15%.

`COCCC(=O)Nc1ccc2c(c1)CN(C(=O)c1ccc(CSC)o1)CC2`: the “hERG current change (%, negative = inhibition) at 10uM” value came out at 4.5%.

For the molecule `O=C(O)CC(NCc1ccco1)C(=O)OCC1CCCO1` (centres unmarked), the “hERG current change (%, negative = inhibition) at 10uM” value is given as 10.7%.

Turning to `COC(=O)CSCC(=O)Nc1nnc(-c2ccccc2C)s1`, the “hERG current change (%, negative = inhibition) at 10uM” value is on record as 3.14%.

For the molecule `CC(C)C[C@H]1CN=C(Nc2ccccc2)N1CCC(C)c1ccccc1` (some centres unmarked), the “hERG current change (%, negative = inhibition) at 10uM” value was -67%.

With `COc1ccc(/C=C/C(=O)OCCNC(=O)c2ccncc2)cc1OC`, the “hERG current change (%, negative = inhibition) at 10uM” value was found to be 30.8%.

For `Cc1nc2ccc(NS(=O)(=O)c3c(F)cc(F)cc3Br)cc2s1`, the “hERG current change (%, negative = inhibition) at 10uM” value was -19%.

Consider `COc1ccc(-c2cccc(C(=O)Nc3ccc(OC)c(OC)c3)c2)cc1`, for which the “hERG current change (%, negative = inhibition) at 10uM” value is 4.27%.

Take `CCC(Sc1nc(N)cc(N)n1)C(=O)O` (centres unmarked): the “hERG current change (%, negative = inhibition) at 10uM” value is 6.74%.

On to `CC(=O)c1cccc(NC(=O)Nc2ccc3c(c2)CCC3)c1`, for which the “hERG current change (%, negative = inhibition) at 10uM” value is 10.4%.

Regarding `COc1ccc(/C=C/C(=O)OCC(=O)Nc2cc3oc4ccccc4c3cc2OC)cc1`, the “hERG current change (%, negative = inhibition) at 10uM” value was found to be 20.3%.

Regarding `COC(=O)CCC(=O)OC1(C)C(=O)C2=CN(Cc3ccc4c(c3)OCO4)C(c3ccc(OC)cc3)=CC2=C(Br)C1=O` (centres unmarked), the “hERG current change (%, negative = inhibition) at 10uM” value worked out at 5.94%.

Regarding `O=C(O)C1C(C(=O)O)C2(Cl)C(Cl)=C(Cl)C1(Cl)C2(Cl)Cl` (centres unmarked), the “hERG current change (%, negative = inhibition) at 10uM” value was 11%.

With `CC(C)CN(C(=O)CN1CCN(c2ccccc2F)CC1)c1c(N)n(CC(C)C)c(=O)[nH]c1=O`, the “hERG current change (%, negative = inhibition) at 10uM” value is reported as 7.43%.

For the molecule `COc1ccc(S(=O)(=O)NC(C)C(=O)Nc2ccccc2C(F)(F)F)cc1` (centres unmarked), the “hERG current change (%, negative = inhibition) at 10uM” value is recorded as -10.1%.

In the case of `CCN(CC(=O)NCc1ccc(F)cc1)C(=O)COc1ccc2ccccc2c1`, the “hERG current change (%, negative = inhibition) at 10uM” value is -70.5%.

Turning to `COc1ccc2[nH]c(C(=O)Nc3ccc(C)c(F)c3)cc2c1`, the “hERG current change (%, negative = inhibition) at 10uM” value stood at 12.5%.

As to `O=C(Cc1ccccc1)c1ccccc1C(=O)N1CCCCC1`, the “hERG current change (%, negative = inhibition) at 10uM” value amounted to 16.2%.

In the case of `COC(=O)c1cccc(NC(=O)CSc2nncn2-c2ccccn2)c1`, the “hERG current change (%, negative = inhibition) at 10uM” value is -3.56%.

In the case of `ClC(Cl)=C(c1ccc(Cl)cc1)c1ccc(Cl)cc1`, the “hERG current change (%, negative = inhibition) at 10uM” value is reported as -15.5%.

The record behind these values is paper PMC4336329 (PLoS ONE, 2015).
